Source: the supplement of paper PMC4604168 (melanoma cell lines)
The other results are listed elsewhere or left out. Repeats are few or missing, and single values can be far off.

How the values were obtained:
Test in all cases: cell count relative to DMSO control; melanoma cells; higher = more viable cells
Settings in all cases: library dose: low library concentration; 72 h
COLO792 = system: COLO792
COLO800 = system: COLO800
COLO829 = system: COLO829
G361 = system: G361
IPC-298 = system: IPC-298
IST-MEL1 = system: IST-MEL1
LB2518-MEL = system: LB2518-MEL
LOXIMVI = system: LOXIMVI
MEL-HO = system: MEL-HO
MZ2-MEL = system: MZ2-MEL
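Also: cell number obtained by counting DAPI-stained nuclei in high-throughput microscope images with image analysis software, screen run in 1,536-well plates.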

| SMILES | cell count (COLO792) | cell count (COLO800) | cell count (COLO829) | cell count (G361) | cell count (IPC-298) | cell count (IST-MEL1) | cell count (LB2518-MEL) | cell count (LOXIMVI) | cell count (MEL-HO) | cell count (MZ2-MEL) |
| --- | --- | --- | --- | --- | --- | --- | --- | --- | --- | --- |
| O=C(O)C(=O)Nc1sc2c(c1C(=O)O)CCNC2 + CCCCCCCCCCCC1=C(O)C(=O)C=C(O)C1=O [Embelin] (first compound 1.66667 µM, partner dose 1.2 µM) | 116% | 111% | 86.8% | 105% | 103% | 110% | 106% | 124% | 119% |  |
| COC(=O)c1sccc1S(=O)(=O)Nc1ccc(Nc2ccccc2)cc1OC + COc1cc(N2CCC(N3CCN(C)CC3)CC2)ccc1Nc1ncc(Cl)c(Nc2ccccc2S(=O)(=O)C(C)C)n1 [NVP-TAE684] (first compound 1 µM, partner dose 0.08 µM) | 96.5% | 90.7% | 99.1% | 91.7% | 100% | 110% | 98.8% | 127% | 99.1% | 93.2% |
| COc1ccc(COc2ccc(Cc3cnc(N)nc3N)cc2OC)cc1 + Cn1cc(/C=C2\C(=O)Nc3cccnc32)c2ccccc21 [GW441756] (first compound 1 µM, partner dose 0.4 µM) | 88.2% | 130% | 93.6% | 109% | 99.3% | 103% | 115% | 120% | 103% | 90.5% |
| CCN(CC)CCCCNc1ncc2cc(-c3cc(OC)cc(OC)c3)c(NC(=O)NC(C)(C)C)nc2n1 + Cn1cc(/C=C2\C(=O)Nc3cccnc32)c2ccccc21 [GW441756] (first compound 0.1 µM, partner dose 0.4 µM) | 82.3% | 77.4% | 104% | 97% | 98.5% | 110% | 97% | 93.2% | 109% |  |
| Oc1nc(-c2ccc(C(F)(F)F)cc2)nc2c1CSCC2 + Cn1cc(/C=C2\C(=O)Nc3cccnc32)c2ccccc21 [GW441756] (first compound 2 µM, partner dose 0.4 µM) | 76.7% | 106% | 81% | 92.6% | 88% | 104% | 92.1% | 66.3% | 92.6% | 94.6% |
| COC(=O)c1sccc1S(=O)(=O)Nc1ccc(Nc2ccccc2)cc1OC + O=c1cc(-c2cccc3c2Sc2ccccc2S3)oc(N2CCOCC2)c1 [KU55933] (first compound 1 µM, partner dose 1 µM) | 111% | 121% | 98.2% | 85% | 96.1% | 99.6% | 127% | 127% | 88.4% | 102% |
| N#Cc1c(O)c2c(-c3ccc(-c4ccccc4O)cc3)csc2[nH]c1=O + COc1cc(N2CCC(N3CCN(C)CC3)CC2)ccc1Nc1ncc(Cl)c(Nc2ccccc2S(=O)(=O)C(C)C)n1 [NVP-TAE684] (first compound 2 µM, partner dose 0.08 µM) | 89.3% | 85% | 93.7% | 102% | 98.8% | 102% | 106% | 112% | 101% | 93.1% |
| O=S(=O)(c1ccccc1)N(CC(F)(F)F)c1ccc(C(O)(C(F)(F)F)C(F)(F)F)cc1 + O=c1cc(-c2cccc3c2Sc2ccccc2S3)oc(N2CCOCC2)c1 [KU55933] (first compound 1.4 µM, partner dose 1 µM) | 99.6% | 142% | 87.8% | 92.7% | 93.7% | 110% | 122% | 121% | 90.7% | 103% |
| COc1ccc(-c2ccc3c(N4CCOCC4)nc(N4C[C@@H](C)O[C@@H](C)C4)nc3n2)cc1CO + O=c1cc(-c2cccc3c2Sc2ccccc2S3)oc(N2CCOCC2)c1 [KU55933] (first compound 0.02 µM, partner dose 1 µM) | 92.8% | 85.1% | 105% | 107% | 106% | 101% | 142% | 102% | 93.3% | 97.3% |
| COc1ccc2c(c1)CCC1C2CCC2(C)C(NCCCCCCN3C(=O)C=CC3=O)CCC12 (configuration not stated) + Oc1cc(-c2nc(-c3ccccc3)[nH]c2-c2ccncc2)ccc1Cl [L779450] (first compound 0.4 µM, partner dose 0.2 µM) | 108% | 94.1% | 111% | 75.5% | 73.3% | 96.9% | 78.4% | 100% | 89.8% | 71.3% |
| COc1cc(N2CCC(N3CCN(C)CC3)CC2)ccc1Nc1ncc(Cl)c(Nc2ccccc2S(=O)(=O)C(C)C)n1 + CC(C)CCN1c2nc(Nc3cc(F)c(O)c(F)c3)ncc2N(C)C(=O)C1C [BID1870] (first compound 0.08 µM, partner dose 0.2 µM) | 99.1% | 62% | 105% | 95.6% | 107% | 106% | 113% | 82% | 80.1% |  |
| CCN(CC)CCCCNc1ncc2cc(-c3cc(OC)cc(OC)c3)c(NC(=O)NC(C)(C)C)nc2n1 + COc1ccc(COc2ccc(Cc3cnc(N)nc3N)cc2OC)cc1 [GW2580] (first compound 0.1 µM, partner dose 1 µM) | 95.6% | 97.9% | 99.2% | 110% | 97.4% | 97.1% | 84.3% | 101% | 104% | 95.6% |
